Reference: PubChem BioAssay AID602179 (National Center for Advancing Translational Sciences (NCATS), 2012)
Where “and” joins values, the source holds several entries; their conditions need not be identical. Equal values may be shown once. Screen size: about 390,000 compounds; about 360 (0.092%) were called active. The inconclusive results got no clear call from the source; some entries with a clear call stand among them for comparison. Calls follow the shape of the dose curve; as a rule, active = well fitted inhibition curve with a large enough effect; inconclusive = small, poorly fitted or top-dose-only effect; inactive = no such curve, though single readings can be large or run the other way. A potency beside an inconclusive call is a rough fit, not a confirmed value.
Also: nearly all actives have a fitted effect of over 65% in size.
Potency is read from the fitted curve at half-maximal effect; tags tell the direction and shape of the fitted curve.

The compounds below were run against Isocitrate dehydrogenase [NADP] cytoplasmic (Homo sapiens) (UniProt O75874) (assay: qHTS for Inhibitors of mutant isocitrate dehydrogenase 1 (IDH1): qHTS). Conditions: IDH1-R132H enzyme, NADPH consumption, diaphorase/resazurin fluorescence; series mostly up to 76.6 µM.
Method in brief: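 IDH1-R132H (0.5 ug/mL dispensed) in pH 7.5 Tris buffer was preincubated 30 min with compound, then given a substrate mix of 0.016 mM NADPH and 2 mM alpha-KG for 80 min at room temperature; remaining NADPH was read by diaphorase/resazurin fluorescence.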
For `Cc1ccc2oc3c(c(=O)c2c1)C(c1cccc(O)c1)N(CCCN1CCOCC1)C3=O` (centres undefined), the Potency was inconclusive: 63.1 µM [inhibitor, single point].
In the case of `O=S(=O)(c1ccc(NC(=S)N/N=C/c2cccc(Oc3ccccc3)c2)cc1)N1CCOCC1`, the Potency is reported as inconclusive: 18.5 µM [inhibitor, partial curve, poor fit].
In the case of `O=[N+]([O-])c1ccc(N/N=C/c2ccc(O)c(O)c2O)c(S(=O)(=O)N2CCOCC2)c1`, the Potency is reported as inconclusive: 58.5 µM [inhibitor, single point].
For `C=CCOc1ccc(C2c3c(oc4ccc(C)cc4c3=O)C(=O)N2CCCN2CCOCC2)cc1` (centres undefined), the Potency was inconclusive: 50.1 µM [inhibitor, single point].
In the case of `Cc1c(CCC(=O)NCCCn2ccnc2)c(=O)oc2c(C)c3occ(C(C)(C)C)c3cc12`, the Potency is reported as inconclusive: 58.5 µM [inhibitor, single point].
With `C[C@H](CO)N1C[C@H](C)[C@@H](CN(C)C(=O)Nc2ccc(C(F)(F)F)cc2)Oc2c(NC(=O)Nc3ccc4c(c3)OCO4)cccc2C1=O` the Potency was “inactive”.
For `O=C(/C(=N/N=C/c1ccc(O)c(O)c1O)c1ccccc1)c1ccccc1`, the Potency was inconclusive: 52.1 µM [inhibitor, single point].
`CCOc1ccc(-c2cc3nc(C4CCN(C(=O)OC(C)(C)C)CC4)c(C(=O)O)cn3n2)cc1` was tested, and the Potency was active: 16.5 µM.
For `COc1ccc(CNC(=O)c2nc(S(=O)(=O)Cc3ccccc3)ncc2Cl)cc1`, the Potency was inconclusive: 50.1 µM [inhibitor, single point].
With `Cc1ccsc1C1Nc2ccc3ncccc3c2C2=C1C(=O)CC(C)(C)C2` (centres undefined) the Potency was inconclusive: 6.56 µM [inhibitor, full curve].
In the case of `Cn1nc(SCc2ccccc2)c(=O)[nH]c1=O`, the Potency is reported as “inactive”.
`Oc1cccc(NC(=S)N=Nc2c(O)[nH]c3ccc(Br)cc23)c1` was tested, and the Potency was inconclusive: 58.5 µM [inhibitor, single point].
`CC(=O)SC1CC(=O)N(c2ccc(C(C)(C)C)cc2)C1=O` (centres undefined) was tested, and the Potency was inconclusive: 29.3 µM [inhibitor, partial curve].
In the case of `O=C(Nc1cccnc1)C12CC3CC(CC(C3)C1)C2`, the Potency is reported as “inactive”.
`Cc1ccc(/C=C2\Sc3ccccc3C2=O)s1` was tested, and the Potency was “inactive”.
For `CCC(=O)N(CCC(Cc1ccccc1)c1ccc2c(c1)OCO2)Cc1ccccc1F` (centres undefined), the Potency was inconclusive: 39.8 µM [inhibitor, partial curve].
For `O=c1[nH]c2ccccc2nc1NCCN1CCOCC1`, the Potency was “inactive”.
With `CCCCC/C=C\C/C=C\C/C=C\CCCCC(=O)O` the Potency was inconclusive: 50.1 µM [inhibitor, single point].
In the case of `Cn1c(=O)c2c(-c3ccccc3Br)n(CCc3ccccc3)cc2n(C)c1=O`, the Potency is reported as inconclusive: 44.7 µM [inhibitor, single point].
`CN1CCN(CCC(=O)Nc2ccc(F)c(F)c2)CC1` was tested, and the Potency was “inactive”.
`Cn1ncc2c(Nc3ccc(Br)cc3)nc(Nc3ccc(Br)cc3)nc21` was tested, and the Potency was active: 32.9 µM.
For `COc1ccc(OCC(=O)NCCS(=O)(=O)N2CCN(c3cccc(Cl)c3)CC2)cc1`, the Potency was “inactive”.
In the case of `CN(C)S(=O)(=O)c1cccc(-c2nn(-c3ccccc3)cc2/C=C2\SC(=S)NC2=O)c1`, the Potency is reported as inconclusive: 52.1 µM [inhibitor, single point].
`CN1CC=C2C(C#N)=C(N)C(C#N)(C#N)C(CCc3ccccc3)C2C1` (centres undefined) was tested, and the Potency was active: 41.4 µM.
For `Cc1ccc(S(=O)(=O)Cc2ccc(C(=O)O)o2)cc1`, the Potency was “inactive”.
In the case of `Cc1cccc(Nc2nc(N)c([N+](=O)[O-])c(N3CC(C)OC(C)C3)n2)c1` (centres undefined), the Potency is reported as inconclusive: 58.5 µM [inhibitor, single point].
For `CCOC(=O)c1cc2c(=O)n3ccccc3nc2n(Cc2ccco2)c1=NC(=O)c1ccccc1OC`, the Potency was inconclusive: 50.1 µM [inhibitor, partial curve, poor fit] and inconclusive: 36.9 µM [inhibitor, partial curve].
With `O=C(O)c1ccccc1NS(=O)(=O)c1ccc(NN=Cc2ccc(F)cc2)c([N+](=O)[O-])c1` the Potency was inconclusive: 58.5 µM [inhibitor, single point].
With `COc1cc(C(=S)N2CCN(C(c3ccccc3)c3ccccc3)CC2)cc(OC)c1O` the Potency was inconclusive: 46.5 µM [inhibitor, partial curve].
`CCOC(=O)c1c(CSC(=N)N)n(-c2ccc(C)cc2)c2cc(Br)c(OC(C)=O)cc12` was tested, and the Potency was inconclusive: 50.1 µM [inhibitor, single point].
With `Cc1ccc(C(=O)N2CCc3ccccc32)o1` the Potency was inconclusive: 18.5 µM [inhibitor, partial curve, poor fit].
In the case of `Cc1ccc(-c2nc(NC(=O)c3cc(C(C)(C)C)nn3C)sc2C)cc1Cl`, the Potency is reported as “inactive”.
For `OCCCNc1ncnc2oc(-c3ccccc3)c(-c3ccccc3)c12`, the Potency was inconclusive: 52.1 µM [inhibitor, single point].
For `COc1ccccc1NC(CC(=O)c1ccccc1)C(=O)OCC(=O)c1ccc(F)cc1` (centres undefined), the Potency was “inactive”.
For `O=C(CCN1CCCCC1c1cccnc1)NCc1ccccc1` (centres undefined), the Potency was inconclusive: 23.3 µM [inhibitor, single point].
For `OCCN(CCO)c1ccc(C(c2ccc(Cl)cc2)c2ccc(N(CCO)CCO)cc2Cl)c(Cl)c1`, the Potency was inconclusive: 52.1 µM [inhibitor, single point].
With `CCOC(=O)c1c(NC(=S)NC)sc2c1CC(C)(C)SC2` the Potency was “inactive”.
`Fc1ccc(F)c(Nc2c3c(nc4ccc(Cl)cc24)CCC3)c1` was tested, and the Potency was inconclusive: 44.7 µM [inhibitor, partial curve, poor fit].
In the case of `COC(=O)c1cccc(NC(=O)CCc2cc(OC)c(OC)c(OC)c2)c1`, the Potency is reported as “inactive”.
In the case of `Cc1cccc(-c2nc(SCc3cc(=O)c4cccc(F)c4[nH]3)n[nH]2)c1`, the Potency is reported as inconclusive: 44.7 µM [inhibitor, single point].
In the case of `COc1ccc(NC(=O)COC(=O)c2cc(SC)ccc2Cl)c(OC)c1`, the Potency is reported as “inactive”.
In the case of `CCOc1ccc(C2c3c(-c4ccccc4O)n[nH]c3C(=O)N2Cc2cccnc2)cc1OC` (centres undefined), the Potency is reported as inconclusive: 50.1 µM [inhibitor, single point].
For `CC(=O)N1c2ccc(S(=O)(=O)NCC3CCC(C(=O)NC4CCC(C)CC4)CC3)cc2CC1C` (centres undefined), the Potency was inconclusive: 58.5 µM [inhibitor, single point].
For `COc1cc(-c2cc(C(=O)Nc3ccc(S(N)(=O)=O)cc3)c3ccccc3n2)cc(OC)c1OC`, the Potency was inconclusive: 18.5 µM [inhibitor, partial curve, poor fit].
`COc1ccccc1N(C(=O)c1snc(C(N)=O)c1N)C(C(=O)NCc1ccccc1)c1ccc(O)cc1` (centres undefined) was tested, and the Potency was active: 58.5 µM.
With `COc1ccc(C(=O)N/N=C/c2ccc(OC)c(CN3CCCc4ccccc43)c2)cc1` the Potency was “inactive”.
For `COc1cc(NC(=O)Cn2nc(C(F)(F)F)c3c2CCCC3)cc(OC)c1OC`, the Potency was inconclusive: 50.1 µM [inhibitor, single point].
`O=C(Cn1ncc2c3ccccc3n(Cc3ccc(F)cc3)c2c1=O)NC1CCCCCC1` was tested, and the Potency was inconclusive: 50.1 µM [inhibitor, single point].
With `COc1ccc(-c2cc(C(=O)Nc3ccc(S(=O)(=O)Nc4ncccn4)cc3)c3ccccc3n2)cc1` the Potency was inconclusive: 58.5 µM [inhibitor, single point].
`O=C1c2[nH]nc(-c3ccccc3O)c2C(c2cccc(Br)c2)N1Cc1ccncc1` (centres undefined) was tested, and the Potency was inconclusive: 44.7 µM [inhibitor, single point].
For `Cc1ccc(CN2C(=O)C(=O)c3cc(Br)cc(C)c32)cc1`, the Potency was inconclusive: 50.1 µM [inhibitor, single point].
In the case of `CCOc1ccc(-n2c(=O)c3c(C)c(C)sc3n(CC(=O)Nc3ccc(CC)cc3)c2=O)cc1`, the Potency is reported as inconclusive: 50.1 µM [inhibitor, single point].
For `COc1c(OC(C)=O)ccc(/C=C/c2ccc3cccc(OC)c3n2)c1[N+](=O)[O-]`, the Potency was inconclusive: 44.7 µM [inhibitor, single point].
`O=C(O)c1ccc(Cl)c(S(=O)(=O)N(Cc2ccccc2)c2ccccc2Cl)c1` was tested, and the Potency was active: 29.3 µM.
With `C[C@H]1CN([C@@H](C)CO)C(=O)c2cccc(NS(=O)(=O)c3ccc(Cl)cc3)c2O[C@@H]1CN(C)CC1CCCCC1` the Potency was active: 44.7 µM.
`CC1CCN(C(=O)c2cc(S(=O)(=O)N3CCOCC3)ccc2N2CCCC2)CC1` was tested, and the Potency was “inactive”.
`Cn1c(=O)c2c(-c3ccccc3Cl)n(Cc3ccc(Cl)cc3)cc2n(C)c1=O` was tested, and the Potency was inconclusive: 44.7 µM [inhibitor, single point].
For `CN(C)S(=O)(=O)c1cccc(NC(=S)N/N=C/c2cc(Br)ccc2O)c1`, the Potency was inconclusive: 58.5 µM [inhibitor, single point].
`Cc1ccc(-c2cc(C(F)F)n3ncc(C(=O)N4CCCCC4c4cccnc4)c3n2)cc1` (centres undefined) was tested, and the Potency was inconclusive: 52.1 µM [inhibitor, partial curve].
In the case of `Cc1cccc(S(=O)(=O)C(C#N)c2nc3ccccc3nc2N2CC(C)OC(C)C2)c1` (centres undefined), the Potency is reported as “inactive”.
`CCOC(=O)c1ccc(N2C(=O)c3n[nH]c(-c4cccs4)c3C2c2cccc(O)c2)cc1` (centres undefined) was tested, and the Potency was inconclusive: 39.8 µM [inhibitor, partial curve].
With `O=C(O)c1ccc(N2C(=O)/C(=C/c3ccc(-c4ccc([N+](=O)[O-])cc4)o3)C=C2c2ccccc2)cc1` the Potency was inconclusive: 3.69 µM [inhibitor, full curve].
For `NC(=O)CN1C(=O)/C(=c2\sc3nc(=O)c(Cc4ccccc4)nn3c2=O)c2ccccc21`, the Potency was inconclusive: 52.1 µM [inhibitor, partial curve].
With `CCCCN1C(=O)C(NC(C)=O)c2cc(Br)ccc21` (centres undefined) the Potency was “inactive”.
